# PubChem BioAssay AID1240 (Sanford-Burnham Center for Chemical Genomics, 2008)
# Screen size: about 50,000 compounds; about 800 (1.6%) showed an effect of 50% or more. This is one part of the list.
# Molecular target: Bcl-2-like protein 10 (Homo sapiens) (UniProt Q9HD36)
# Assay: TR3 peptide-Bcl-B binding displacers, biochemical primary FP assay, phenotype converters (AID 1240);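 further: 0% = Bcl-B with tracer peptide and DMSO and 100% = tracer peptide lacking Bcl-B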
# Details: GST-Bcl-B / FITC-TR3 peptide fluorescence polarization; stronger effect = higher value; compound at 3.75 mg/L
# Sequence of UniProt Q9HD36 (Q9HD36 whole entry, looked up): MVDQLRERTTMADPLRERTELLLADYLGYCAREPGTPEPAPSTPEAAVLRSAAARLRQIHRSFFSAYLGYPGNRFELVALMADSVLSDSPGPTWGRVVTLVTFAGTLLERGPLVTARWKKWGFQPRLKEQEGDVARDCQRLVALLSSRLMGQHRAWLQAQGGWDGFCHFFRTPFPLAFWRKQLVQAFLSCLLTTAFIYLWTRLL
row,SMILES,displacement [%]
1,CCc1ccc(N2CC(C(=O)Nc3cccc(C)c3C)CC2=O)cc1 (stereo unspecified),14.8
2,COc1ccc2c(c1OC)C(=O)N(c1ccc(C(C)=O)cc1)C2=O,-14.2
3,CCOc1ccc(N2C(=O)NC(=O)/C(=C/c3cc(Br)c(OCC)c(OC)c3)C2=O)cc1,-6.7
4,CC1=NN(c2ccccc2)C(=O)C1/C=C1\C(=O)NC(=S)N(c2ccc(F)cc2)C1=O (stereo unspecified),2.4
5,O=C(CCCOc1ccccc1)Nc1ccc(S(=O)(=O)Nc2nccs2)cc1,0.6
6,Cc1ccc(Nc2cc(C)c(O)c(C)c2)cc1,5.4
7,CCOC(=O)C(C(=O)OCC)C(C(=O)OCC)(C(=O)OCC)C(C(=O)OCC)C(=O)OCC,2.1
8,O=C(c1ccccc1)N1CCN(CCCc2ccccc2)CC1,-9.4
9,N#Cc1c(-c2ccco2)cc(-c2ccccc2)[nH]c1=S,11.1
10,CCOc1cc(C=NNC(=S)NC2CCCCC2)ccc1O,-13.2
11,CCOC(=O)c1ccc(NC(=S)NC(=O)/C=C/c2ccccc2)cc1,2.1
12,CCCCOc1ccc(N2C(=O)C3CC(C)=C(C)CC3C2=O)cc1 (stereo unspecified),-0.7
13,CCN(CC)C(=S)S/C=C/C(=O)c1ccccc1,-9.8
14,CC1=C(C(=O)OCCOc2ccccc2)C(c2cccs2)C2=C(CCCC2=O)N1 (stereo unspecified),-10.1
15,CC(=O)Nc1ccc(C(=O)Nc2ccc(Br)cc2F)cc1,15.4
16,CS(=O)(=O)N(CC(=O)Nc1ccc(Oc2ccccc2)cc1)c1cccc(Cl)c1,2.4
17,COc1ccc(N/N=C(/C#N)C(=N)N2CCCCCC2)cc1,0.3
18,CN1/C(=C/C(=O)Nc2ccccc2)c2ccccc2CC12CCCCC2,5
19,CN(/N=C/c1cccc(Oc2ccccc2)c1)c1ccccc1,12.6
20,C/C(=C\C(=O)c1ccncc1)Nc1ccccc1O,13.1
21,COc1ccc(NS(=O)(=O)c2ccc(OC)c(Br)c2)c(OC)c1,7.6
22,CC1=NN(c2ccc(S(N)(=O)=O)cc2)C(=O)/C1=C\c1cccs1,-1.4

row,SMILES,displacement [%]
1,O=C(Nc1ccc(S(=O)(=O)Nc2nccs2)cc1)c1cccc(F)c1,0.4
2,COc1ccccc1NC(=O)C1=C(C)NC(=S)NC1c1ccc(C)cc1 (stereo unspecified),6.8
3,COC(=O)CNC(c1ccccc1)c1cc(Br)ccc1NC(=O)CN1CCOCC1 (stereo unspecified),-12.7
4,COc1ccc(/C=C2\SC(=S)N(CC(=O)OCCN(C)C)C2=O)cc1,17.8
5,COc1cccc(C2NC(=S)NC(C)=C2C(=O)Nc2cccc(C)c2)c1OC (stereo unspecified),3.9
6,COC(=O)c1sc(NC(=O)c2ccccc2OC)c(C(=O)OC)c1C,-1.5
7,O=C(N=Nc1c(O)[nH]c2ccc(Br)cc12)c1cccnc1,2
8,COc1ccc(N(CC(=O)N/N=C/c2cccs2)S(=O)(=O)c2ccc(OC)c(OC)c2)cc1,-6.3
9,CC(C)NC(=O)c1ccc(C(C)C)cc1,2.3
10,COc1cccc(/C=N/NC(=O)C(=O)Nc2cccc(OC)c2)c1,5.7
11,COc1cc(/C=C2\C(=O)NC(=O)N(c3ccc(Br)c(C)c3)C2=O)cc([N+](=O)[O-])c1O,-6.2
12,COc1cc(C(=O)N2CCN(Cc3cccc(Oc4ccccc4)c3)CC2)cc(OC)c1OC,132
13,COc1ccc(N(CC(=O)NCc2ccncc2)S(=O)(=O)c2ccc(OC)c(OC)c2)cc1,10.7
14,COc1cccc(C(=O)/C=C/c2ccc(OC)cc2OC)c1,-11.5
15,O=C(NN1C(=O)/C(=C/c2c(Cl)cccc2Cl)SC1=S)c1ccccc1O,43
16,COC(=O)c1c(NC(=O)c2cccc(OC)c2)sc2c1CCCC2,2.5
17,O=C(Cc1ccc(Cl)cc1)NN1C(=O)c2ccccc2C1=O,-7.2
18,COc1ccc(/C(N)=N/OC(=O)c2ccc(C(C)(C)C)cc2)cc1OC,3.7
19,Cc1ccc(OCCOc2ccc(Cl)cc2C=C2C(=O)NC(=S)NC2=O)cc1,-7.7
20,CCOc1ccc(N(CC(=O)Nc2cc(C)ccc2C)S(C)(=O)=O)cc1,-4.1
21,O=C(O)CCC1NC(=S)N(c2ccccc2)C1=O (stereo unspecified),3.1
22,COc1ccc(/C=C2\C(=O)NC(=O)N(c3ccccc3)C2=O)c(C)c1,17.2

row,SMILES,displacement [%]
1,Cc1ccc[n+](C[n+]2cccc(C)c2)c1,5.3
2,COc1cc(/C=C2/C(=O)NC(=O)N(c3ccc(C(C)C)cc3)C2=O)cc(OC)c1O,-7.9
3,CCOC(=O)C1=C(C)N=c2s/c(=C/c3cccc([N+](=O)[O-])c3)c(=O)n2C1c1ccccc1Cl (stereo unspecified),10.2
4,Cc1ccc(N2C(=O)NC(=O)/C(=C\c3ccc(OCc4cccc(C(=O)O)c4)cc3)C2=O)cc1,5.5
5,O=C(CCN1C(=O)c2cccc([N+](=O)[O-])c2C1=O)NCC1CCCO1 (stereo unspecified),-3.9
6,Cc1ccc(C2CC(C(F)(F)F)n3ncc(C(=O)Nc4cccc(Cl)c4)c3N2)cc1 (stereo unspecified),4.5
7,O=C(CCc1ccccc1O)N/N=C/c1cc([N+](=O)[O-])ccc1N1CCOCC1,-12
8,CCOC(=O)CCCSc1nc2sc3c(c2c(=O)n1-c1ccccc1)CCCC3,-2.8
9,O=C(NC(=S)Nc1sc2c(c1C(=O)O)CCC2)c1ccccc1,5.3
10,Cc1ccccc1-c1nnc(NC(=O)Nc2ccccc2)s1,12
11,CN1CCN(c2ccc([N+](=O)[O-])cc2/C=N/NC(=O)c2cccc([N+](=O)[O-])c2)CC1,-14.6
12,COc1ccc(Cl)cc1NC(=O)C(=O)NCc1ccc(C)cc1,-7.7
13,Cc1nonc1NC(=O)CN1CCCC1,15
14,O=C1CC(c2ccccc2)CC2=C1C(c1ccco1)Nc1ccccc1N2 (stereo unspecified),10.8
15,O=C(O)C1C(C(=O)Nc2ccccc2F)C2C=CC1C21CC1 (stereo unspecified),-4.5
16,CCOc1ccc(NC(=O)c2c(NC(=O)c3ccc([N+](=O)[O-])cc3)sc3c2CCC3)cc1,10.6
17,COc1ccc(NC(=O)c2ccc(CN3CCN(Cc4ccccc4)CC3)cc2)c(OC)c1,7
18,COc1ccc2ccccc2c1/C=C1\SC(=S)N(Cc2ccccc2)C1=O,-4
19,Cc1occc1C(=O)N/N=C/C1CC=CCC1 (stereo unspecified),0
20,Cc1ccc(C(=O)N/C(=C\c2ccc(Cl)cc2)C(=O)NCc2ccncc2)cc1,7.1
21,C=CCN1C(=O)NC(=O)/C(=C/c2ccc(OC)c(OCc3ccc(Cl)cc3)c2)C1=O,2.5
22,Cc1ccc2c(c1)NC(c1ccc(Cl)cc1)C1=C(CC(C)(C)CC1=O)N2 (stereo unspecified),0.9

row,SMILES,displacement [%]
1,O=C(NCCN1CCOCC1)c1cc(-c2ccc(Cl)cc2)nc2ccccc12,0.8
2,CN(C)c1cccc(NC(=O)c2ccccc2-c2ccccc2)c1,4
3,O=[N+]([O-])c1ccc(COc2ccc(/C=N/Nc3nc4ccccc4s3)cc2)cc1,3.8
4,COc1ccccc1NC(=O)c1c(NC(=O)c2cc([N+](=O)[O-])ccc2Cl)sc2c1CCCC2,13.8
5,COc1cc(NS(=O)(=O)c2ccc(Cl)cc2)cc(OC)c1,41.2
6,CCN1C(=O)/C(=C/c2ccc(OC(=O)c3cccc(C)c3)c(OC)c2)SC1=S,11.6
7,CCOc1ccc(N(Cc2ccc(C(=O)NC(C)CC)cc2)S(=O)(=O)c2ccc(C)cc2)cc1 (stereo unspecified),-5.2
8,CC(C)(C)SCC(O)Cn1c2ccccc2c2ccccc21 (stereo unspecified),-4.7
9,CCC(=O)Oc1cc2oc(=O)cc(C)c2cc1CC,-3.8
10,C/C(=N\N=C(/N)SC1CC(=O)N(c2cccc(Cl)c2)C1=O)c1ccc(F)cc1 (stereo unspecified),-19.2
11,CCOC(=O)c1ccc(NCCC(=O)c2cccs2)cc1,-12.3
12,N#C/C(=C\c1cc([N+](=O)[O-])c(N2CCOCC2)cc1N1CCOCC1)c1nc2ccccc2[nH]1,6.9
13,COc1ccc(OC)c(/C=C/C(=O)NCC2CCCO2)c1 (stereo unspecified),11
14,O=[N+]([O-])c1ccc(N2CCN(S(=O)(=O)Cc3ccccc3)CC2)c(Cl)c1,9.1
15,CCc1cccc(C)c1NC(=O)c1cccc(C)c1,-12.3
16,CCOc1ccc(N2C(=O)/C(=C/c3ccc(OCc4cccc(C(=O)O)c4)cc3)C(=O)NC2=S)cc1,10.7
17,COc1ccc(C2=C/C(=C/c3ccc(I)o3)C(=O)O2)cc1,44.1
18,CN1C(=O)/C(=C2\SC(=S)N(CC(=O)O)C2=O)c2ccccc21,17.9
19,Cc1ccc(CN2CCN(/N=C\c3cccc([N+](=O)[O-])c3)CC2)cc1,-8.4
20,Cc1ccc(NC(=O)c2ccc(I)cc2)cc1Cl,9.1
21,Cc1cc(I)ccc1NC(=O)c1cccnc1,-10.7
22,S=c1oc(-c2ccccc2Cl)nn1CNc1ccccc1Cl,-23.2

row,SMILES,displacement [%]
1,CC(C)(C)C(=O)Nc1sc2c(c1C(=O)Nc1cccc3ccccc13)CCC2,-5.2
2,C=CCSc1nnc(-c2ccccc2)o1,-9.3
3,CCO/N=C(\c1nonc1N)N1CCOCC1,4.2
4,O=S(=O)(Nc1ccccc1)c1ccc2c(c1)OCCO2,-10.1
5,O=S(=O)(CCc1nc2ccccc2o1)c1ccc2ccccc2c1,-13.2
6,COc1ccccc1C(=O)N/N=C/c1ccc(N2Cc3cc(C)c(C)cc3C2)cc1,-3.4
7,COc1ccc(S(=O)(=O)n2cnc3ccccc32)cc1OC,0
8,CCOc1nc(-c2ccccc2)c2cc(Cl)ccc2n1,-1.9
9,O=C(Nc1cccc(F)c1)[C@H]1CC=CC[C@H]1C(=O)O,9.1
10,CCn1c2c(c3cc(C(C)(C)C)ccc31)CCCC2=O,-5.1
11,O=C(O)CCCCCN1C(=O)C(O)=C(C(=O)/C=C/c2ccccc2)C1c1ccccc1 (stereo unspecified),4.7
12,COc1ccc(OCc2ccccc2)c(C=O)c1,-3.2
13,CCOC(=O)c1c(NC(=O)c2ccco2)sc(C(=O)Nc2ccc(OC)cc2OC)c1C,-12.9
14,COc1cc(C(=O)N/C(=C/c2ccc(Br)cc2)C(=O)NC(Cc2ccccc2)C(=O)O)cc(OC)c1OC (stereo unspecified),7.8
15,COc1ccc(C(=O)CC(c2cccs2)S(=O)(=O)c2ccccc2)cc1 (stereo unspecified),17.9
16,O=C(NCc1ccc2c(c1)OCO2)c1sc2ccccc2c1Cl,-6
17,COc1cccc(C2NC(=S)NC(C)=C2C(=O)Nc2cccc(Cl)c2)c1 (stereo unspecified),-14
18,Cc1ccc(-n2nc3ccc(NC(=S)NC(=O)c4ccco4)cc3n2)cc1,9
